Measurements reported in PubChem BioAssay AID743279 (National Center for Advancing Translational Sciences (NCATS), 2014).
About 17,000 (4.7%) of roughly 360,000 compounds were called active. Inconclusive results, whose numbers are uncertain, are shown with a selection of clear calls. Cut-off read from the data, not from the text of the source: active = activity change below about -50%; inconclusive = mostly about -30% to -49%; inactive = weaker than that.

Assay: qHTS for Inhibitors of Inflammasome Signaling: IL-1-beta AlphaLISA Primary Screen
Conditions: THP-1 LPS/ATP IL-1B secretion, 16 h; at 57.5 µM, stronger effect = lower value
In short: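 Secreted IL-1B measured by AlphaLISA bead assay after 16 h compound exposure of THP-1 cells; compounds (final up to 57.5 uM) added 1 h before LPS (250 ng/mL) and ATP (1.25 mM) stimulation; lower signal means less secretion.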
% is set by controls: 0 for no effect and ±100 for the full control effect.

Compound | activity change
C/C(=N\O)c1cc(Cl)cc(Cl)c1O | active: -82.6%
CS(=O)(=O)N1CCc2cc(-c3csc(NC(=O)Cc4ccccc4)n3)ccc21 | inconclusive: -34.1%
COc1cc(OC)c(C(=O)Nc2cc(S(=O)(=O)N3CCOCC3)ccc2N2CCN(C)CC2)cc1OC | inconclusive: -49.8%
C=C1SC(Nc2c(C)cc(C)cc2C)=NC12CCCCC2 | active: -68.6%
c1ccc(N2CCN(c3nnc(Cc4cccnc4)c4ccccc34)CC2)nc1 | inconclusive: -30.3%
COc1ccc(C(CNC(=O)c2cccc(S(=O)(=O)N3CCCc4ccccc43)c2)N(C)C)cc1 (stereo not drawn) | active: -53.7%
NC(=O)c1ccccc1OCC(=O)N1CCCc2ccccc21 | inactive: 48.4%
CCc1ccccc1NC1=NCC(=O)N1C1CCCC1 | inactive: 2.28%
COc1cc(/C=C2/C(=N)N3C=CSC3=NC2=O)ccc1OCCOc1ccc(NC(C)=O)cc1 | inactive: 12.2%
Cc1oc2c(C)c3oc(=O)c(CCC(=O)NCCCn4ccnc4)c(C)c3cc2c1C | inconclusive: -48.5%
COc1ccc(S(=O)(=O)Nc2cccc3c2O[C@H](CN(C)Cc2ccc(Cl)c(Cl)c2)[C@@H](C)CN([C@H](C)CO)C3=O)cc1 | active: -56.3%
COc1ccccc1Nc1nc(C)c(C(=O)Nc2ccccc2)s1 | active: -52.7%
O=C1NC[C@H](CCCCN2C[C@H](Cc3ccc(O)cc3)N(CCC3CCCCC3)C(=O)C2=O)N(CCC2CCCCC2)C1=O | inconclusive: -31.1%
CCc1ccc(NC(=O)CCCN2C(=O)C3CC=CCC3C2=O)cc1 (stereo not drawn) | inactive: 1.8%
C=CCN(c1ccccc1OC)S(=O)(=O)c1cccc(C(=O)OCC(=O)c2c[nH]c3ccccc23)c1 | inactive: -1.63%
Cn1c(=O)n(C)c2cc(NS(=O)(=O)c3ccc(Cl)s3)ccc21 | inconclusive: -30.3%
COc1ccccc1-n1c(SCC(=O)NCc2ccc3c(c2)OCO3)nc2cc([N+](=O)[O-])ccc21 | inconclusive: -45.8%
Cc1cccc(CCN=c2c([N+](=O)[O-])nn(-c3ccccc3)n2O)c1 | inconclusive: -40.5%
COc1cc(OC)cc(C(=O)Nc2ccc(C(=O)Nc3ccccc3OC)cc2)c1 | inconclusive: -40.3%
N/C(=N\OC(=O)c1ccc([N+](=O)[O-])cc1Cl)c1ccccn1 | inconclusive: -40.8%
CN1C=CC=C/C1=C1\SC(=S)N(CC(=O)O)C1=O | inactive: 11.8%
CCOC(=O)c1cc(NC(=O)c2ccc(C)cc2)c(=O)oc1-c1ccccc1 | inconclusive: -47.2%
CCc1nc2ccc(C(=O)NCc3ccc(OC)cc3)cn2c1N(C)CCC(C)C | inconclusive: -45%
